The test system of data set [1] is OPM2 multiple myeloma xenograft. Put plainly: OPM2 xenograft model, anti-BCMA ADCs (Studies 1 and 2). It is filed as in vivo, mouse. To be noted: single intravenous dose 20 mg/kg; for Tumor growth inhibition (% ± SEM, day 30): OPM2 Study 1, ADC. As to the method: (§1) Methods: Anti-tumor activity of exemplary anti-BCMA ADCs was assessed in an OPM2 multiple myeloma xenograft model. OPM2 cells were cultured and expanded for inoculation according to ATCC recommendations. Cells were pelleted and resuspended in a solution of serum-free RPMI-1640 medium (50% v/v) and Matrigel (50% v/v) at a density of 5.0×10^7 cells/mL. Female CB17-Scid mice were inoculated subcutaneously with 100 μL of cell suspension on their right flanks and monitored for tumor growth. When the mean tumor volume reached ˜150 mm^3, mice were randomized into treatment groups and given a single intravenous dose (via tail vein) of 2.0 mg/mL dosing solution at 10 mL/kg for a total dose of 20 mg/kg. Mice were weighed and their tumors were measured two to three times/week. Animals with tumors exceeding 2000 mm^3 or 20 mm in any dimension were taken off study and appropriately euthanized according to IACUC protocol. Upon euthanasia, tumor samples and serum were collected and banked for subsequent analyses.
Conjugates of AB213, AB214, and AB215 were assessed in a first experiment (FIG. 11; Table 30); conjugates of AB212, AB216, AB217, and AB218 were assessed in a second experiment (FIG. 12; Table 31).
In the second experiment, to evaluate the antibody-specific activity of ADCs incorporating exemplary anti-BCMA antibodies, a ‘non-targeting’ ADC was generated by conjugating the ADL1-D2 linker-payload to the anti-HER2 antibody trastuzumab (AB185) at an average DAR of ˜4.0.

Data set [2] in a line: SEC analysis - aggregation / percent monomer. It is filed as physicochemical. To be noted: absorbance at 280 nm, ADC batch. How it is done: The peak area absorbance at 280 nm was determined for the high molecular weight and monomeric conjugate components by area under the curve integration.
For orientation: SEC sorts molecules by how far they enter the pores of the column.

For a further data set, the system named is OPM2 cells. The data set can be described thus: CellTiter-Glo cell viability, OPM2 (normal serum). The settings on record: for GI50: OPM2 cells, 6 days, CellTiter-Glo, read-out: GI50 (nM) OPM2.1. It counts as cell-based, human. A general note: In ATP-based viability assays light output follows the ATP content of the culture.
The nature of data set [3]: Accelerated stability testing at 37° C. (aggregation, concentration, DAR). To be noted: 20 mM Histidine/HOAc pH 6.0. It counts as physicochemical. As to the method: (§2) Exemplary anti-BCMA ADCs (˜1 mg each in Eppendorf tubes, ˜4-5 mg/mL) were centrifuged and measured by UV absorption (NanoDrop) at 280 nm to determine protein concentrations. Samples were then incubated in a 37° C. water bath and sampled at four time points, 0 (freshly prepared), 1 day, 2 days, and 4 days. Samples taken at different time points were stored at −80° C. until the last sampling was completed. After thawing at 22° C., samples were analyzed with SEC and hydrophobic interaction chromatography (HIC) for quantification of antibody aggregation and DAR.

The subject of the next data set is MOLP8 cells. Put plainly: CellTiter-Glo cell viability, MOLP8. It is filed as cell-based, human. To be noted: for GI50: MOLP8 cells, 6 days, CellTiter-Glo, read-out: GI50 (nM) MOLP8.1.
The subject of another data set is MM1.S cells. Put plainly: CellTiter-Glo cell viability, MM1.S. It is filed as cell-based, human. To be noted: for GI50: MM1.S cells, 6 days, CellTiter-Glo, read-out: GI50 (nM) MM1S.1.
Data set [4] in a line: HPLC analysis - free drug. To be noted: residual unconjugated linker-payload in ADC batch. It is filed as physicochemical. As to the method:
Conjugate was precipitated with 10 volumes of acetonitrile on ice for 2 hours and spun down. Supernatants containing residual unconjugated payload were then injected onto an Agilent Poroshell 120 SB-C18120A column (4.6×100 mm, 2.7 μm) and eluted with a gradient of 45% B to 70% B over 10 min at RT. Mobile phase A was 100% water, mobile phase B was 100% acetonitrile, and the flow rate was 0.6 mL/min with detection at 252 nm. The amount of residual free drug was quantified via UV detection with comparison to the external standard curve of unconjugated linker-payload.

Data set [5] is described as follows: HIC analysis - DAR of the ADC batch. It counts as physicochemical. To be noted: HIC. How it is done: as §2
In data set [6] the test system is MOLP8 multiple myeloma xenograft. Put plainly: MOLP8 xenograft model, anti-BCMA ADCs (Study 1). It counts as in vivo, mouse. To be noted: MOLP8 xenograft Study 1, conditions as OPM2 model (single intravenous dose 20 mg/kg). As to the method:
as §1, with “Cells were pelleted and resuspended in a solution of serum-free RPMI-1640 medium (50% v/v) and Matrigel (50% v/v) at a density of 5.0×10^7 cells/mL.” left out
Methods: To further evaluate the anti-tumor activity of exemplary anti-BCMA ADCs in vivo, a screen of the same ADCs was performed in a second multiple myeloma xenograft model, MOLP8. […] All experimental conditions in this study were identical to those used for the OPM2 model with the exception of the model itself and the number of days from tumor inoculation to dose administration (day of dosing is indicated by an arrow in FIG. 15).

B1: AB213-ADL1-D2-02 (conjugate)
heavy: QVQLVQSGAEVKKPGSSVKVSCKASGGTFTNYWIHWVRQAPGQGLEWMGGTYRSHSTTYYNQKFKSRVTITADKSTSTAYMELSSLRSEDTAVYYCARGAVYHGYDVIDNWGQGTLVTVSS[omitted - human IgG1 constant region]
light: DIQMTQSPSSLSASVGDRVTITCRASQSISSYLNWYQQKPGKAPKLLIYATSNLQIGVPSRFSGSGSGTDFTLTISSLQPEDFATYYCQQFRRLPWTFGQGTKLEIKRTVAAPSVFIFPPSDEQLKSGTASVVCLLNNFYPREAKVQWKVDNALQSGNSQESVTEQDSKDSTYSLSSTLTLSKADYEKHKVYACEVTHQGLSSPVTKSFNRGEC
On to B1, for which the “Tumor growth inhibition (% ± SEM, day 30)” value in data set [1] was found to be 67.78 ± 5.08%. The “Percent Monomer” value in data set [2] was 99%. In addition, the “LD50 (nM) OPM2.1” value in the data set with OPM2 cells was determined as 32.461 nM. The values for the 50% growth inhibitory concentration (GI50) in the data set on OPM2 cells, in the data set on MOLP8 cells and in the data set on MM1.S cells were 1.16 nM, 6.06 nM and 0.43 nM, respectively. Moreover, the “Aggregation (%)” value in [3] (0 d at 37° C.) was 0.72%; in data set [3] (1 d at 37° C.), 2.02%; in data set [3] (2 d at 37° C.), 1.71%; in [3] (4 d at 37° C.) it was 1.98%. Besides, the “Concentration” value in data set [3] (0 d at 37° C.) came out at 4.73 mg/mL; in data set [3] (1 d at 37° C.) it was 4.56 mg/mL; in data set [3] (2 d at 37° C.) it was 4.61 mg/mL; in [3] (4 d at 37° C.), 4.81 mg/mL. Also, the “DAR (HIC)” value is 4.20 in data set [3] (0 d at 37° C.), 4.20 in [3] (1 d at 37° C.), 4.29 in data set [3] (2 d at 37° C.) and 4.40 in data set [3] (4 d at 37° C.). For the same molecule, in the data set on MOLP8 cells, the “LD50 (nM) MOLP8.1” value turned out to be 79.032 nM. For the same molecule, the “LD50 (nM) MM1S.1” value in the data set on MM1.S cells was 236.418 nM. Besides, in data set [4], the “Free Drug (%)” value came to 0.0%.

B2: AB215-ADL1-D2-02 (conjugate)
heavy: QVQLVQSGAEVKKPGSSVKVSCKASGGTFTNYWIHWVRQAPGQGLEWMGGTYRSHSTTYYNQKFKSRVTITADKSTSTAYMELSSLRSEDTAVYYCARGAVYHGYDVIDNWGQGTLVTVSS[omitted - human IgG1 constant region]
light: DIQMTQSPSSLSASVGDRVTITCRASQSISSYLNWYQQKPGKAPKLLIYATSNLQIGVPSRFSGSGSGTDFTLTISSLQPEDFATYYCQQYRRIPWTFGQGTKLEIKRTVAAPSVFIFPPSDEQLKSGTASVVCLLNNFYPREAKVQWKVDNALQSGNSQESVTEQDSKDSTYSLSSTLTLSKADYEKHKVYACEVTHQGLSSPVTKSFNRGEC
For the molecule B2, in data set [5] (batch used in MOLP8 Study 1), the “Drug-to-antibody ratio (DAR)” value stood at 3.96. For the same molecule, the “Tumor growth inhibition (% ± SEM, day 30)” value in data set [1] stood at 87.96 ± 3.18%. Also, in data set [2], the “Percent Monomer” value is recorded as 99.13%. In [3] (0 d at 37° C.), the “Aggregation (%)” value is 1.25%, the “Concentration” value came to 5.28 mg/mL and the “DAR (HIC)” value turned out to be 4.80. In addition, in data set [3] (1 d at 37° C.), the “Aggregation (%)” value came to 1.72%, the “Concentration” value is listed as 4.99 mg/mL and the “DAR (HIC)” value is recorded as 4.74. Further, in [3] (2 d at 37° C.), the “Aggregation (%)” value turned out to be 1.59%, the “Concentration” value is given as 5.21 mg/mL and the “DAR (HIC)” value was 4.77. Also, in data set [3] (4 d at 37° C.), the “Aggregation (%)” value was 2.14%, the “Concentration” value turned out to be 5.69 mg/mL and the “DAR (HIC)” value is reported as 5.01. Further, in the data set on MOLP8 cells, the “LD50 (nM) MOLP8.1” value is given as 111.791 nM and the GI50 – broadly, the concentration that inhibits growth by half – came to 13.6 nM. Moreover, in the data set with MM1.S cells, the “LD50 (nM) MM1S.1” value turned out to be 272.647 nM and the GI50 came to 0.843 nM. In data set [4], the “Free Drug (%)” value is on record as 0.35%. Besides, the “Tumor growth inhibition (% ± SEM, day 21)” value in data set [6] was found to be 52.06 ± 24.38%.

B3: AB212-ADL1-D2-02 (conjugate)
heavy: QVQLVQSGAEVKKPGSSVKVSCKASGGTFSNYWIHWVRQAPGQGLEWMGGTYRSHSDTNYNQKFKSRVTITADKSTSTAYMELSSLRSEDTAVYYCARGAIYHGYDVIENWGQGTLVTVSS[omitted - human IgG1 constant region]
light: DIQMTQSPSSLSASVGDRVTITCRASQSISSYLNWYQQKPGKAPKLLIYATSNLQIGVPSRFSGSGSGTDFTLTISSLQPEDFATYYCQQFRRLPWTFGQGTKLEIKRTVAAPSVFIFPPSDEQLKSGTASVVCLLNNFYPREAKVQWKVDNALQSGNSQESVTEQDSKDSTYSLSSTLTLSKADYEKHKVYACEVTHQGLSSPVTKSFNRGEC
B3: the “Drug-to-antibody ratio (DAR)” value in data set [5] (batch used in MOLP8 Study 1) and in [5] (batch used in OPM2 Study 2) was 5.17 in each case. For the same molecule, in data set [1] (OPM2 xenograft Study 2, CB17-Scid mice, day 28), the “Tumor growth inhibition (% ± SEM, day 28)” value was determined as 94.53 ± 4.34%. In [2], the “Percent Monomer” value is reported as 100%. For the same molecule, the “LD50 (nM) OPM2.1” value in the data set with OPM2 cells is 90.732 nM. Moreover, the GI50 with OPM2 cells is 17.7 nM; in the data set with MOLP8 cells, 26.2 nM; with MM1.S cells, 3.69 nM. For the same molecule, the “Aggregation (%)” value in [3] (0 d at 37° C.) turned out to be 1.10%; in [3] (1 d at 37° C.) it was 1.52%; in [3] (2 d at 37° C.), 1.83%; in data set [3] (4 d at 37° C.), 1.62%. Moreover, the “Concentration” value in [3] (0 d at 37° C.) is 4.96 mg/mL; in data set [3] (1 d at 37° C.), 4.85 mg/mL; in data set [3] (2 d at 37° C.), 4.95 mg/mL; in [3] (4 d at 37° C.), 5.01 mg/mL. Further, the “DAR (HIC)” value in [3] (0 d at 37° C.) turned out to be 5.19; in data set [3] (1 d at 37° C.) it was 5.24; in [3] (2 d at 37° C.) it was 5.19; in [3] (4 d at 37° C.) it was 5.21. The “LD50 (nM) MOLP8.1” value in the data set with MOLP8 cells was 73.65 nM. Further, the “LD50 (nM) MM1S.1” value with MM1.S cells was 136.061 nM. In addition, the “Free Drug (%)” value in [4] was 2.1%. Moreover, the “Tumor growth inhibition (% ± SEM, day 21)” value in data set [6] is 68.23 ± 12.52%.

The values are drawn from patent publication US12043670B2, “Anti-BCMA antibody-drug conjugates and methods of use” (Eisai R&D Management Co., Ltd., priority 2020, dated 2024).
